Values marked as one replicate rest on one cluster of the flow cell; about a third of the high ones do not repeat.

The test system of this data set is ATP. The experiment in a line: switch fluorescence ratio, 500 uM ATP over buffer (Cy3 cluster intensity, sum of 5 cycles each) (fold (ratio)); higher = stronger signal-on switching upon ATP binding; sequences stand for … in TCGTCGGCAGCGTCAGATGTGTATAAGAGACAGTTTTTTTTTTTTTTTTTTTTTTTTT…TC. To be noted: aptamer strand: ATP DNA aptamer (quencher-CACCTGGGGGAGTATTGCGGAGGAAGG + anchor), 100 nM annealed; ATP concentration: 500 uM; one replicate. The method, boiled down:
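After annealing to 100 nM quencher-labelled ATP aptamer, Cy3-labelled switching-strand clusters on a modified Illumina MiSeq flow-cell were imaged in selection buffer. A second image followed after 15 min with 500 uM ATP at 22 °C, and five such buffer/ATP cycles were done, each separated by NaOH stripping and re-annealing. The fluorescence ratio, averaged per switch-domain sequence, is summed target-cycle over summed buffer-cycle Cy3 intensity per cluster, with clusters outside 100-1000 RFU excluded.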
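Note: ATP exposure 15 min at 22 °C before imaging.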

Regarding TCGCGGCCGG, the switch fluorescence ratio amounted to 0.962.
For CCCCAGACGT the value was 1.58.
For GTGAGAAGGG the value was 1.01; for CGTCGGCTTG, 1; for CGTAGGAGTG, 1.02.
For the sequence CATTAAATCG, the switch fluorescence ratio is 0.979.
Next, CGTAGGTAAG: 1.02; CCGTAGTGCC: 1.41; AAAGGTAGCT: 0.998.
For GGCCTCGTGT the value was 1.1; for AGGAAAGTTG, 1.03.
In the case of CTGGGGCGGT, the switch fluorescence ratio came to 1.05.
Next, TGATGGCCCA: 1.03; TGCCGGGG: 0.969.
Take TGCATAGCGA: the switch fluorescence ratio was 1.01.
For GAAAGGCGTA the value was 1.02; for ATGGATTATA, 0.976; for CTGAAGGGTG, 0.987.
Consider GGTTACAGAC, for which the switch fluorescence ratio was 1.03.
Turning to TGGAGGTTTA, the switch fluorescence ratio was 1.01.
As to GAGAGGTGGT, the switch fluorescence ratio was 1.04.
For GCTTCGGCAT the value was 1.04.
For AAATGCGATC the value was 1.12; for CATGCATAAG, 0.967; for GATTTGGTAT, 1.
On to AACTGCGCAT, for which the switch fluorescence ratio turned out to be 1.63.
Turning to CTCCTTTCAC, the switch fluorescence ratio is 1.19.
Next, GTCACACGCG: 0.995; CGAGTTCCTC: 1.01; ATTTTTCGCC: 1.
Next, ACTCACGTTA: 1.4; ATCGACGTAC: 1.53.
CGTTGCTTTA: the switch fluorescence ratio worked out at 0.956.
For TCATGTGCG the value was 0.976; for TGTTAATCGT, 0.997; for CAGAGTGTTT, 0.988.
For AATAATGTGA the value was 0.998.
TTTCAGCGTA: the switch fluorescence ratio was 1.06.
Next, CCACTAAAT: 1.11; GTTCGGACAG: 1.
As to CGGGGCAATA, the switch fluorescence ratio was 2.75.
Next, ATTCCGAGCT: 1.9; GTGGAACCGT: 0.978; CGTGATGTAG: 1.01.
Next, AATTCGCGCT: 1.21; CGGAGGTCGA: 1.01; TAGATCCGGG: 1.2.
As for GCTGATAGAA, the switch fluorescence ratio was determined as 1.
As for CGAAGCCTCC, the switch fluorescence ratio is 4.42.
For CGGGCCCTG the value was 0.999; for TAGAGCGTAA, 1.11.
For TTCAAACCCC the value was 1.17; for ACTATCACCT, 1.24.
For the sequence ATAGCTGTAC, the switch fluorescence ratio was determined as 3.48.
Take TCCGAAATC: the switch fluorescence ratio amounted to 1.45.
With GAGGCGCTAC, the switch fluorescence ratio was 1.02.
For GAGCAATCCG the value was 1.67.
With CTTGGAACCG, the switch fluorescence ratio came to 1.02.
For TATGGAGTC the value was 0.988; for GAGTGTGAT, 0.965; for CGCCGAAAGT, 1.02.
Next, TGCTTTCACG: 0.985.
For GTCCCGGTTC the value was 0.998.
On to GGACCAGTTC, for which the switch fluorescence ratio came to 1.06.
Next, GAGGTAAAAG: 0.989; ATAAGAGTCG: 0.967.
Next, AGTTTCAGTA: 0.97.
CGGGCAATTA: the switch fluorescence ratio came to 1.76.
For the sequence GTATTAGTCC, the switch fluorescence ratio was 0.96.
Turning to CAGGCTACAG, the switch fluorescence ratio was 0.961.
For TAGCCGTTGA the value was 1.08; for TACGACGAAA, 4.51.
For TTGGGCGAAG the value was 0.969; for CAATAAACAC, 1.03; for TCGCGGGTTT, 0.997.
For GGTCGGCCCG the value was 0.941; for GGCTTACCCG, 1.31.
Regarding TGCGGAA, the switch fluorescence ratio was found to be 0.963.
As for ACCAAGGGGG, the switch fluorescence ratio came out at 1.05.
Turning to ACCATCGTGT, the switch fluorescence ratio stood at 1.05.
For GAGCGTTGTC the value was 1.01; for ATTATGGCGG, 0.967.
As to GTAATTGGCA, the switch fluorescence ratio amounted to 0.993.
With TACGCGACTT, the switch fluorescence ratio was 1.16.
Next, GTAGTCCCTC: 1.01; CGTCTGCCGT: 1.01.
Next, AGTATAGTG: 0.966.
As to GTTTGACGTT, the switch fluorescence ratio came out at 1.
Next, TTGTACCTAT: 1.02; GAACACTATA: 1.18.
Next, GCAAGTGTAA: 1; AAGATTCTGA: 1.05; GTCTCTAAAT: 0.998.
Next, GTATTATTTG: 1.01; GAGCCGGGG: 1.01.
As for TGATTGGGGC, the switch fluorescence ratio stood at 0.979.
Next, CAAGGCGCTA: 1.05; CTAGTAGATT: 0.952; CGGGATTGTA: 1.31.
Next, GATAGTTGTG: 0.959.
As to CATTTTATTC, the switch fluorescence ratio was 1.01.
For the sequence TCCAGGTAAA, the switch fluorescence ratio is 1.06.
For GGGAAGTAGC the value was 1.02; for TATGTCCGGT, 0.978.
Regarding TATGGCAATT, the switch fluorescence ratio is 1.03.
Next, TGCTGATTAC: 1.09.
For TCAAGGAGTA the value was 0.942; for CCCCTGAAGG, 1.07; for TTACACTTCA, 1.05.
For ATTCTAAAGC the value was 1.05; for ATGTTTATGT, 1.1.
On to TAGGGGCTCA, for which the switch fluorescence ratio turned out to be 1.01.
For ATCTTGCGAT the value was 1.02; for AAACATGAAG, 0.993.
For AGAACACGAA, the switch fluorescence ratio was found to be 1.06.
For AGGACTGAGT the value was 0.999; for TTACACGGCG, 1.07; for AGTATGACCT, 1.
For GGTGGAGCCA the value was 0.999; for CGCCAAGGAC, 1.6.

The values above are taken from the supplement of paper PMC10126150.
